From PubChem BioAssay AID588342 (National Center for Advancing Translational Sciences (NCATS), 2011)
About 25,000 (6.9%) of roughly 360,000 compounds were called active. Inconclusive results, whose numbers are uncertain, are shown with a selection of clear calls. Calls come from the whole dose curve; as a rule, active = well fitted inhibition curve with a large enough effect; inconclusive = small, poorly fitted or top-dose-only effect; inactive = flat fitted curve, though single readings scatter. A potency beside an inconclusive call is a rough fit, not a confirmed value.

molecular target: Luciferin 4-monooxygenase (Photinus pyralis) (UniProt P08659); assay: qHTS profiling assay for firefly luciferase inhibitor/activator using purifed enzyme and Km concentrations of substrates (counterscreen for miR-21 project); details: purified FLuc, luminescence inhibition; series mostly up to 57.5 µM; note: nearly all actives have a fitted effect of over 55% in size
Summary of the method: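 Purified P. pyralis luciferase, 10 nM final, with Km-level 10 uM D-luciferin and 10 uM ATP in 50 mM Tris acetate pH 7.5, 10 mM Mg acetate, 0.01% Tween-20, 0.05% BSA; 6-point qHTS titration about 60 µM downward; luminescence read.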
Potency is the fitted concentration of half-maximal effect; tags give direction and shape of the fitted curve.

UniProt P08659, sequence (P08659 whole entry, looked up): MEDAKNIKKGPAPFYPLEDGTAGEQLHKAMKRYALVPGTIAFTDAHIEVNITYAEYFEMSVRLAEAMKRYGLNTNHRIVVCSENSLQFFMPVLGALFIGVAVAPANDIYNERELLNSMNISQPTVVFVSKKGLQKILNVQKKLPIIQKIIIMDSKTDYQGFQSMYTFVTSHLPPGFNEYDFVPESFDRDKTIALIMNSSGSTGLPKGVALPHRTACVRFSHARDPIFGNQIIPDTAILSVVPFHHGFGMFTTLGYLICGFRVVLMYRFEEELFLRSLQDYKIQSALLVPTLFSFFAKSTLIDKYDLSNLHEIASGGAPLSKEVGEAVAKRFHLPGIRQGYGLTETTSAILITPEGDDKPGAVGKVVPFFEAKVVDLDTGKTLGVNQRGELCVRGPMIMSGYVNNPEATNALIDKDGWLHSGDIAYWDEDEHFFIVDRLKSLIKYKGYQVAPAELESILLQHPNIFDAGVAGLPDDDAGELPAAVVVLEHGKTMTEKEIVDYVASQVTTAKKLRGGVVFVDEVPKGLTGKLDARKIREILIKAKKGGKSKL

SMILES	Potency
COc1cccc(/C(C#N)=C/c2c(-c3ccc(Cl)cc3)nc3c(C)cccn23)c1	inactive
O=C(COC(=O)c1ccco1)c1ccccc1	active: 6.01 µM
O=C(NC1CCCC1)c1cc(-c2cccs2)on1	active: 4.78 µM
Cc1ccc([N+](=O)[O-])cc1N/C=C1\CCc2ccccc2C1=O	inconclusive: 0.757 µM [inhibitor, partial curve, poor fit]
Cc1ccc(-n2ncc3c(NCCC4=CCCCC4)ncnc32)cc1C	inconclusive: 13.5 µM [inhibitor, partial curve, poor fit]
CCOCC(=O)Nc1nnc(COc2ccc(Cl)cc2)s1	inconclusive: 23.9 µM [inhibitor, single point]
O=C(CCS(=O)(=O)c1cccs1)N1CCN(c2ccc(F)cc2)CC1	inconclusive: 21.3 µM [inhibitor, single point]
COc1ccc(N=C2C(=Nc3ccc(OC)cc3)N(c3ccc(OC)cc3)C(=S)N2C(=O)c2ccc(OC)cc2)cc1	inconclusive: 9.53 µM [inhibitor, partial curve, poor fit]
Clc1ccccc1Cn1nnc2c(Nc3ccccc3)ncnc21	inconclusive: 23.9 µM [inhibitor, partial curve, poor fit]
CCOC(=O)c1ccc(NC(=S)NNC(=O)C2(C)CC2(Cl)Cl)cc1 (stereo not drawn)	inconclusive: 37.9 µM [inhibitor, single point]
COc1cccc(NC(=O)CCCN2C(=O)C3CC=CCC3C2=O)c1 (stereo not drawn)	inconclusive: 19 µM [inhibitor, single point]
Nc1[nH]n(-c2ccccc2)c(=O)c1N=Nc1ccc2ncsc2c1	active: 19 µM
COc1ccc(Nc2c([N+](=O)[O-])ccc3c2=NC2(CCCCC2)N=3)cc1	inconclusive: 37.9 µM [inhibitor, partial curve, poor fit]
O=C1CSC(c2cn(-c3ccccc3)nc2-c2cc3ccccc3o2)N1Cc1ccccc1 (stereo not drawn)	inconclusive: 26.9 µM [inhibitor, partial curve, poor fit]
COc1ccc(-c2cc(C(F)F)n3ncc(C(=O)Nc4cccc(S(=O)(=O)N5CCOCC5)c4)c3n2)cc1	inactive
CCOC(=O)c1c(C)oc2c(Cl)cc(NS(=O)(=O)c3ccc(Cl)c(C)c3)cc12	inconclusive: 9.53 µM [inhibitor, partial curve, poor fit]
COC(=O)c1c(NC(NC(=O)C(C)C)C(Cl)(Cl)Cl)sc2c1CCCC2 (stereo not drawn)	inactive
O=C1c2ccccc2NC(c2ccccc2)N1/N=C/c1ccccc1 (stereo not drawn)	inconclusive: 26.9 µM [inhibitor, single point]
Cc1ccc(C(=O)OCC(=O)NCc2cccs2)cc1	inconclusive: 23.9 µM [inhibitor, single point]
Cc1cc(C(=O)Nc2ccccn2)cs1	active: 10.7 µM
Cc1ccc(CNC(=O)Cn2ncn3cccc3c2=O)cc1	active: 13.5 µM
CCOC(=O)c1c(C)[nH]c(C)c1S(=O)(=O)N(C)CC(=O)N1CCN(c2ccccc2OC)CC1	inactive
Cc1ccccc1C(=O)N1CCN(c2ccc(NC(=O)c3cccc(OC(C)C)c3)cc2)CC1	inactive

SMILES	Potency
COc1ccc(C(C[N+](=O)[O-])c2c(C)[nH]n(-c3ccccc3)c2=O)cc1 (stereo not drawn)	inconclusive: 21.3 µM [inhibitor, partial curve, poor fit]
Cc1cc(C)c2nc(NNC(=O)c3cc(-c4cccs4)nc4ccccc34)sc2c1	inconclusive: 37.9 µM [inhibitor, partial curve, poor fit]
CC(=O)c1cccc(Nc2nc(-c3sc(N)nc3C)cs2)c1	active: 16.9 µM
CCOC(=O)Cc1ccc(NCc2ccc(Cl)cc2)cc1	inconclusive: 30.1 µM [inhibitor, single point]
O=C(c1cc(-c2ccc(O)cc2)on1)N1CCN(c2ccc(F)cc2)CC1	inconclusive: 30.1 µM [inhibitor, partial curve, poor fit]
Cc1ccccc1C(=O)/C=C1/c2ccccc2CC(C)(C)N1C	inactive
CCOc1ccc(CCNC(=O)c2cn(-c3cccc(OC)c3)c(=O)c3ccccc23)cc1	inconclusive: 10.7 µM [inhibitor, partial curve]
O=C(Nc1ccc(C(=O)N2CCCCC2)cc1)c1cccs1	inconclusive: 26.9 µM [inhibitor, single point]
C=CCNCC(=O)Nc1sc2c(c1C(=O)Nc1ccc(OC)cc1OC)CCC2	inactive
COc1ccc(C)cc1NC(=O)c1cc(-c2ccccc2)nc2c1cnn2C(C)C	inactive
COc1cccc(C(=O)NNC(=O)c2ccccc2-n2cccc2)c1	inconclusive: 37.9 µM [inhibitor, single point]
COc1cc(/C=N/NC(=O)c2ccc([N+](=O)[O-])cc2Cl)cc(Br)c1O	inconclusive: 23.9 µM [inhibitor, single point]
Cn1c(=O)oc2cc(S(=O)(=O)NCCC(=O)NCc3ccc(F)cc3)ccc21	inactive
Nc1c(C(=O)N2CCCC2)sc2nc(-c3ccccc3)ccc12	active: 4.78 µM
O=C(NCc1ccccc1)c1csc(-c2cccnc2)n1	inactive
COc1ccc(Nc2cnn(-c3nc4ccccc4s3)c(=O)c2Cl)cc1	active: 10.7 µM
O=C(NCc1ccc(F)cc1)c1ccc(Cn2c(SCc3ccc(F)cc3)nc3cccnc32)cc1	active: 4.78 µM
O=C(Nc1ccc2oc(-c3ccccc3)nc2c1)c1cccnc1	inconclusive: 10.7 µM [inhibitor, partial curve]
CN(c1cccc(NC(=O)CN(c2ccc(Cl)c(Cl)c2)S(=O)(=O)c2ccccc2)c1)S(C)(=O)=O	inconclusive: 21.3 µM [inhibitor, partial curve, poor fit]
Cc1ccccc1Nc1nc(-c2sc(NC(=O)c3ccc([N+](=O)[O-])cc3)nc2C)cs1	inconclusive: 6.75 µM [inhibitor, full curve]
Cc1cc(C)cc(-n2c(C)nc3cc(C(=O)NCc4ccc(F)cc4)ccc32)c1	inactive
COc1ccc(Cl)cc1NC(=O)C(=O)N/N=C/c1cc(C)n(-c2ccc(C)cc2)c1C	active: 3.38 µM
O=C(O)/C=C/c1cn(-c2ccccc2)nc1-c1ccc2c(c1)OCCO2	inconclusive: 23.9 µM [inhibitor, partial curve, poor fit]

SMILES	Potency
CCCCCOC(=O)NCC(O)c1ccccc1 (stereo not drawn)	active: 13.5 µM
CCOc1ccc(-c2cn3ccccc3n2)cc1[N+](=O)[O-]	active: 2.69 µM
CC(C)c1ccc2c(c1)NC(c1ccncc1)=NC(c1cccs1)=N2	inconclusive: 37.9 µM [inhibitor, partial curve, poor fit]
O=C(N/N=C/c1cc(Cl)ccc1O)c1ccc(Br)cc1	inconclusive: 8.49 µM [inhibitor, partial curve, poor fit]
COC(=O)CCC(=O)c1oc2ccc(Cl)cc2c1NC(=O)CCCN1C(=O)c2ccccc2C1=O	inactive
Cc1nn(-c2ccc([N+](=O)[O-])cc2)c(N)c1-c1ccccc1	active: 7.57 µM
Cc1ccc(Cl)cc1N1CCN(C(=O)c2ccc3c(c2)N(Cc2ccccc2F)C(=O)c2ccccc2S3=O)CC1 (stereo not drawn)	inactive
Cc1ccc(NC(=O)c2ccc(OC(=O)COc3ccc(Cl)cc3C)cc2)cc1	inconclusive: 7.57 µM [inhibitor, partial curve]
NS(=O)(=O)c1ccc(NC(=O)COC(=O)c2c3c(nc4ccccc24)/C(=C\c2ccc4c(c2)OCO4)CCC3)cc1	inconclusive: 23.9 µM [inhibitor, partial curve, poor fit]
O=C(Nc1ccc2c(c1)nc1n2CCSC1)c1ccccc1	active: 10.7 µM
Cc1cc(C(=O)Nc2cnn(Cc3ccc(Cl)cc3Cl)c2)no1	inconclusive: 21.3 µM [inhibitor, partial curve, poor fit]
O=C(NC(=S)Nc1cc([N+](=O)[O-])ccc1O)c1ccc2c(c1)OCO2	active: 1.51 µM
CC(=O)Nc1ccc(N=Cc2nc(-c3ccc(C)cc3)oc2O)cc1	inconclusive: 6.75 µM [inhibitor, full curve]
O=C(N/N=C/c1ccc(O)c2ccccc12)c1cccnc1	inconclusive: 26.9 µM [inhibitor, partial curve, poor fit]
Cc1ccc(OC(=O)c2ccc(C)c([N+](=O)[O-])c2)cn1	inconclusive: 21.3 µM [inhibitor, partial curve, poor fit]
Cn1nc(-c2ccc(Cl)cc2)nc2c(=O)n(C)c(=O)nc1-2	inconclusive: 15.1 µM [inhibitor, partial curve]
CCc1cccc(NC(=O)C2CCC(CNS(=O)(=O)c3ccc4c(c3)CCCC(=O)N4)CC2)c1 (stereo not drawn)	inconclusive: 9.53 µM [inhibitor, partial curve, poor fit]
COCCN1CCN(C(=O)c2cc(COc3ccc(F)cc3Cl)on2)CC1	inconclusive: 21.3 µM [inhibitor, single point]
CCN(CC)S(=O)(=O)c1ccc(N2CCc3ccccc3C2)nc1	inconclusive: 26.9 µM [inhibitor, single point]
Cc1cc(C(=O)OC(C)C(=O)Nc2nc(-c3ccccc3)cs2)c(C)o1 (stereo not drawn)	inactive
C/C(=N/Nc1ccc([N+](=O)[O-])cc1)c1c[nH]c2ccccc12	inconclusive: 37.9 µM [inhibitor, single point]
CCN(CC(=O)Nc1c(F)cccc1F)C(=O)c1ccc2c(c1)S(=O)(=O)N=C1CCCCCN12	inactive
